Laboratory results published in PMC4336329 (PLoS ONE, 2015).
In all, about 310,000 compounds went through this assay and about 14,000 (4.5%) showed an effect of 50% or more. Effects have a minus sign here. Some of the results follow.

molecular target: human ether-à-go-go-related gene (hERG) potassium channel (human, UniProt Q12809); assay: primary screen, population patch clamp on CHO cells stably expressing hERG
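Also: peak tail current of the secondary pulse compared with the same well before compound.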

Chain of human ether-à-go-go-related gene (hERG) potassium channel (Q12809 whole entry, looked up): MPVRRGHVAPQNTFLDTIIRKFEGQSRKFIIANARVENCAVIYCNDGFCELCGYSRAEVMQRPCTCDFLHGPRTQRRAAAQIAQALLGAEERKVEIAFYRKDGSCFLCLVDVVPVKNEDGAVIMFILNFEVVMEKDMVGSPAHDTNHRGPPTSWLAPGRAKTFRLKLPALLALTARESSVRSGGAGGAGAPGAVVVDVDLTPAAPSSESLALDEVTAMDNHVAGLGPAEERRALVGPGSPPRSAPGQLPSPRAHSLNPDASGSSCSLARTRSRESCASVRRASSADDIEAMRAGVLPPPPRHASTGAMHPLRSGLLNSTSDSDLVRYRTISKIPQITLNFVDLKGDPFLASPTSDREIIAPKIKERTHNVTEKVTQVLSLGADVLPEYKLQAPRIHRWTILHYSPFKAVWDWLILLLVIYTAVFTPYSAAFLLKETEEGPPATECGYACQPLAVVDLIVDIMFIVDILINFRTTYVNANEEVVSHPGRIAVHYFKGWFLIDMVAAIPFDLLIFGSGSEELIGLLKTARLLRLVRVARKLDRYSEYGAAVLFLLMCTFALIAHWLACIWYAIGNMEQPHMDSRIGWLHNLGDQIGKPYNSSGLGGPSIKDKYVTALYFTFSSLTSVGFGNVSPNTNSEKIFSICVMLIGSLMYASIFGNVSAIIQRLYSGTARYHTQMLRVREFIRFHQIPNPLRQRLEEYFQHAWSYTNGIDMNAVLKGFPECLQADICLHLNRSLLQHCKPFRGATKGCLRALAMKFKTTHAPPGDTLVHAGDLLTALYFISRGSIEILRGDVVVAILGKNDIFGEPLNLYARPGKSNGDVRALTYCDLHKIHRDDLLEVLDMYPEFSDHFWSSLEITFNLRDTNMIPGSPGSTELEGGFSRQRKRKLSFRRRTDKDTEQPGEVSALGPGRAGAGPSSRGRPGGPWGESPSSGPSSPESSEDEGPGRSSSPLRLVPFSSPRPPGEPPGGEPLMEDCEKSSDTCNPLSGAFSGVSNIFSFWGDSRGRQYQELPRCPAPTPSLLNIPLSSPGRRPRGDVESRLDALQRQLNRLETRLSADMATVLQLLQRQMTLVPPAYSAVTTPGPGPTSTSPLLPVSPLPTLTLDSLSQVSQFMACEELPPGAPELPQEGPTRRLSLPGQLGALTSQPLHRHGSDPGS

First: CCOC(=O)Cc1csc(NC(=O)CN(C)S(=O)(=O)c2cccc3cccnc23)n1
Second: Cc1csc(NC(=O)CCSCCc2ccccn2)n1
The “hERG current change (%, negative = inhibition) at 10uM” value of the first is lower: -17.6% for the first, -9.48% for the second.

Going from `O=C(CSc1nnc(-c2ccc(S(=O)(=O)N3CCOCC3)cc2)o1)c1ccccc1F` to `O=C(Nc1nnc(S(=O)(=O)N2CCOCC2)s1)c1ccc(F)cc1`, the “hERG current change (%, negative = inhibition) at 10uM” value falls from 1.84% to -0.815%.

First: Cc1noc(C)c1C(=O)OCC(=O)N1CCN(S(=O)(=O)c2ccc3ccccc3c2)CC1
Second: Cc1ccccc1CC(=O)Nc1ccc(S(=O)(=O)N2CCN(C)CC2)cc1
The “hERG current change (%, negative = inhibition) at 10uM” value of the first is higher: -0.697% for the first, -6.26% for the second.

First: COc1ccccc1NC(=O)c1ccccc1Nc1ccccc1
Second: COc1ccccc1N(CC(=O)Nc1ccccc1C(=O)N1CCOCC1)S(C)(=O)=O
The “hERG current change (%, negative = inhibition) at 10uM” value of the first is higher: 22.6% for the first, 15.6% for the second.

Compared with `COc1ccc(C(CNC(=O)CSc2ccccc2C)N(C)C)cc1` (centres unmarked), `COc1ccc(N(CC(=O)Nc2cc(Cl)ccc2C)S(=O)(=O)c2c(C)n[nH]c2C)cc1` is higher in “hERG current change (%, negative = inhibition) at 10uM” value: -3.49% for the first, 4.8% for the second.

Going from `COC(=O)[C@H](C)NC(=O)NCc1ccco1` to `CCOC(=O)N/N=C(/C)c1ccc([N+](=O)[O-])o1`, the “hERG current change (%, negative = inhibition) at 10uM” value falls from -1.49% to -25.4%.

First: O=C(c1cc(COc2cccc3cnccc23)on1)N1CCCC(CCCO)C1 (centres unmarked)
Second: O=C1c2oc3ccc(F)cc3c(=O)c2C(c2cccc(O)c2)N1CCCN1CCOCC1 (centres unmarked)
The “hERG current change (%, negative = inhibition) at 10uM” value of the first is lower: -41.2% for the first, 7.49% for the second.

Going from `COCc1cc(C)nc(SCc2ccc(F)cc2)c1C#N` to `CCCCOc1ccc(CSc2nncn2N)cc1`, the “hERG current change (%, negative = inhibition) at 10uM” value falls from 17.1% to -1.59%.

Going from `CC(=O)Nc1ccc(S(=O)(=O)Nc2ccc3c(c2)OCCO3)cc1` to `CC(=O)c1cccc(NC(=O)Nc2ccc(C(=O)N3CCCC3)cc2)c1`, the “hERG current change (%, negative = inhibition) at 10uM” value falls from 25.9% to 3.52%.

First: CCc1ccc(Nc2nnc(SCC(=O)Nc3sccc3C(N)=O)s2)cc1
Second: Cc1ccc(NC(=O)C2=C(O)c3sccc3N(C)S2(=O)=O)cc1
The “hERG current change (%, negative = inhibition) at 10uM” value of the first is lower: -9.35% for the first, 24.3% for the second.

Going from `Cc1cc2cc(CN(C(=O)C3CC3)C3CCCC3)c3nnnn3c2cc1C` to `Cc1cc(C)n(C2CCCCC2OC(=O)c2ccccc2F)n1` (centres unmarked), the “hERG current change (%, negative = inhibition) at 10uM” value rises from -16.1% to 6.23%.

First: c1ccc(CCNc2ncnc3scc(C4COc5ccccc5O4)c23)cc1 (centres unmarked)
Second: Nc1nc(CN2CCN(Cc3ccccc3)CC2)nc(Nc2ccccc2)n1
The “hERG current change (%, negative = inhibition) at 10uM” value of the first is higher: 17.9% for the first, -66.2% for the second.

Compared with `CC1CCN(S(=O)(=O)c2cccc(C(N)=O)c2)CC1`, `O=S(=O)(c1cccc(C(F)(F)F)c1)N1CCC(c2cc(-c3cccc4ccccc34)n[nH]2)CC1` is higher in “hERG current change (%, negative = inhibition) at 10uM” value: -8.19% for the first, 11.4% for the second.

First: O=C(Nc1ccc(Cl)cc1)Nc1csc([N+](=O)[O-])c1
Second: O=C(NCCc1ccc(Cl)cc1)c1ncn[nH]1
The “hERG current change (%, negative = inhibition) at 10uM” value of the first is higher: 16.5% for the first, 7.32% for the second.

First: S=C(NCc1ccco1)N1CCN(C/C=C/c2ccccc2)CC1
Second: CCCC(c1nnnn1Cc1ccco1)N1CCN(C(=O)c2ccco2)CC1.Cl (centres unmarked)
The “hERG current change (%, negative = inhibition) at 10uM” value of the first is lower: -56.2% for the first, -11.8% for the second.

First: O=c1nc(/C=C/c2cc([N+](=O)[O-])ccc2Cl)cc(C(F)(F)F)[nH]1
Second: O=C(Nc1cccc2oc(=O)ccc12)c1ccc([N+](=O)[O-])cc1[N+](=O)[O-]
The “hERG current change (%, negative = inhibition) at 10uM” value of the first is higher: 18.8% for the first, -59.9% for the second.

Going from `COc1ccc(CCNC(=O)c2ccc(CN3CCC(Cc4ccccc4)CC3)cc2)cc1` to `CCOC(=O)C1(CCOc2ccccc2)CCN(Cc2ccc(O)cc2)CC1`, the “hERG current change (%, negative = inhibition) at 10uM” value falls from -15.6% to -85.1%.

Going from `Nc1nnc(-c2ccc(F)cc2)s1` to `CC(=O)O.Cc1ccc(OCCCSc2n[nH]c(N)n2)cc1`, the “hERG current change (%, negative = inhibition) at 10uM” value rises from -8.65% to 10.9%.

Going from `COc1ccc(OC)c(NC(=S)NCc2cccs2)c1` to `COc1ccc2[nH]c3c(c2c1)CCN1C(=O)N([C@@H](C)C(=O)NCc2ccccc2OC)C(=O)[C@]31C`, the “hERG current change (%, negative = inhibition) at 10uM” value rises from -18.3% to -17.2%.

First: COc1ccc(S(=O)(=O)NC2CCCCC2)cc1C(=O)N1CCCCC1
Second: Cn1c(=O)n(CC(=O)NC2CCCCC2)c(=O)c2ccccc21
The “hERG current change (%, negative = inhibition) at 10uM” value of the first is lower: -8.48% for the first, 2.25% for the second.

First: Cc1nnc(SCC(=O)NNC(=O)c2ccc(Br)cc2)n1C
Second: CCCCNC(=O)CSc1nnc(Cc2ccccc2)n1CC
The “hERG current change (%, negative = inhibition) at 10uM” value of the first is higher: 48.2% for the first, -1.33% for the second.

First: Cc1cc2[nH]c(=O)c(=O)[nH]c2cc1S(=O)(=O)Nc1ccccc1F
Second: S=c1[nH]c2ccc3ccccc3c2[nH]1
The “hERG current change (%, negative = inhibition) at 10uM” value of the first is lower: 1.78% for the first, 5.22% for the second.

Going from `COc1cccc(C(=O)O/N=C(\N)c2ccccn2)c1` to `COc1cccc(/C=N\NS(=O)(=O)c2ccccc2)c1OC`, the “hERG current change (%, negative = inhibition) at 10uM” value rises from -2.49% to 12%.

First: Cc1ccc(O)c(C(=O)c2cc(C#N)c(=O)n(-c3c(C)n(C)n(-c4ccccc4)c3=O)c2)c1
Second: COc1ccc(O)c(C(=O)c2cc(C#N)c(=O)n(-c3c(C)n(C)n(-c4ccccc4)c3=O)c2)c1
The “hERG current change (%, negative = inhibition) at 10uM” value of the first is lower: -18.6% for the first, -2.47% for the second.

First: O=C(O)C1C2CCCCC2=C2CCCCC2C1C(=O)c1ccccc1 (centres unmarked)
Second: O=C(O)C(=O)O.OCCNCCSc1nc(C2CCCCC2)n(-c2ccccc2Cl)n1
The “hERG current change (%, negative = inhibition) at 10uM” value of the first is higher: -2.74% for the first, -8.25% for the second.

Compared with `Br.CCOCc1cn(CC(=O)c2ccc(Cl)cc2)c(C)nc1=N`, `C/C(Cn1nc([N+](=O)[O-])cc1C)=N\NC(=O)c1cccc(Br)c1` is lower in “hERG current change (%, negative = inhibition) at 10uM” value: 5.78% for the first, -20.5% for the second.

Compared with `COc1cccc(NC2=NC3(CCCCC3)N=C(N)N2)c1`, `Cn1c(=O)c(C(=O)CN2CCCCC2)c(N)n(Cc2ccccc2)c1=O` is lower in “hERG current change (%, negative = inhibition) at 10uM” value: 22.8% for the first, -22% for the second.

First: Cc1nn(CC(=O)Nc2ccncc2)c(C)c1[N+](=O)[O-]
Second: CCc1ccccc1NC(=O)Cn1nc(C(F)(F)F)cc1C1CC1
The “hERG current change (%, negative = inhibition) at 10uM” value of the first is lower: 1.23% for the first, 11.9% for the second.

Compared with `CCOc1ccccc1N(CC(=O)NCC1CCCO1)C(=O)CNS(=O)(=O)c1ccccc1` (centres unmarked), `Cc1ccc(S(=O)(=O)NCC(=O)N(CC(=O)NC(C)(C)C)Cc2cccs2)cc1` is lower in “hERG current change (%, negative = inhibition) at 10uM” value: 7.35% for the first, 2.83% for the second.

First: COc1ccc(OCCN2CCN(C(=O)c3ccc(OC)c(OC)c3)CC2)cc1
Second: COc1ccc(N2CCN(C(=O)CCc3nnc4ccc(N5CCC(C)CC5)nn34)CC2)cc1
The “hERG current change (%, negative = inhibition) at 10uM” value of the first is higher: -58.8% for the first, -66.1% for the second.

Compared with `O=C(CN1CCN(c2ccccn2)CC1)Nc1cc(C(F)(F)F)ccc1Cl`, `O=C(CN1CCCCCC1)N/N=C/c1cccc(Cl)c1` is lower in “hERG current change (%, negative = inhibition) at 10uM” value: -3.6% for the first, -37.5% for the second.

First: O=C1C2CC=CCC2C(=O)N1CNc1ccccc1 (centres unmarked)
Second: O=S(=O)(c1ccc(SCc2ccccc2)nc1)N1CCCCC1
The “hERG current change (%, negative = inhibition) at 10uM” value of the first is higher: 14.7% for the first, 4.03% for the second.

Going from `COCCCNC(=O)CCS(=O)(=O)Cc1ccc(C)cc1` to `CCCCCCCOc1ccc(C2CC(=O)N(C)C2=O)cc1` (centres unmarked), the “hERG current change (%, negative = inhibition) at 10uM” value rises from -11.7% to 4.77%.

Compared with `CS(=O)(=O)O.NC(=Nc1ccccc1)NC(=O)c1nc(Cl)c(N)nc1N`, `C=CCSc1nnc(-c2ccccc2NC(C)=O)c(=O)[nH]1` is higher in “hERG current change (%, negative = inhibition) at 10uM” value: -50% for the first, -3.84% for the second.

First: CC(=O)Nc1c(O)c2cccc3c2n(c1=O)CCC3
Second: CC(=O)N1C(C(=O)O)Cc2c([nH]c3ccccc23)C1(C)C (centres unmarked)
The “hERG current change (%, negative = inhibition) at 10uM” value of the first is lower: 15.6% for the first, 17% for the second.

Going from `CN1CCC(=NNC(=O)CSc2ccc(Cl)cc2)CC1` to `C/C(=N\NC(=O)c1cc(C)oc1C)c1ccc(N2CCOCC2)cc1`, the “hERG current change (%, negative = inhibition) at 10uM” value falls from 9.84% to 7.89%.

Compared with `CC1(C)SC[C@H](C(=O)Nc2cccc(Cl)c2)N1C=O`, `CC(Sc1nnc2ccccn12)C(=O)Nc1ccc(Cl)cn1` (centres unmarked) is lower in “hERG current change (%, negative = inhibition) at 10uM” value: 7.87% for the first, -1.5% for the second.

Going from `S=C1N[C@H]2CCCC[C@@H]2N1` to `CC1CCCC(NC(=O)COC(=O)/C=C/c2ccc3c(c2)OCO3)C1C` (centres unmarked), the “hERG current change (%, negative = inhibition) at 10uM” value falls from 17.7% to -2.03%.

Compared with `COc1ccc(CN2C(=O)c3cccnc3C2=O)cc1S(=O)(=O)N(C)Cc1ccco1`, `COc1cc([C@@H]2CC=C(C(=O)O)[C@H](c3cccc(Cl)c3)N2S(=O)(=O)c2ccc(C)cc2)cc(OC)c1OC` is higher in “hERG current change (%, negative = inhibition) at 10uM” value: -13.3% for the first, 32.9% for the second.

Compared with `COc1ccc(-c2n[nH]c(C)c2-c2ccc(Cl)cc2)c(O)c1OC`, `COc1cc(CCC(=O)OCC(N)=O)cc(OC)c1OC` is lower in “hERG current change (%, negative = inhibition) at 10uM” value: 14.5% for the first, -1.21% for the second.

Going from `CN(C)Cc1c(O)c(Cl)cc2c3c(c(=O)oc12)CCCC3` to `Cc1cccc(N2C(=O)CC(c3ccc(F)cc3)C3=C2COC3=O)c1` (centres unmarked), the “hERG current change (%, negative = inhibition) at 10uM” value falls from 5.69% to -16.6%.

First: COC(=O)C1=C(C)NC(=O)/C1=C\c1cc(C)n(-c2cc(C)cc(C)c2)c1C
Second: CCCCN1CC(=O)N2[C@H](c3ccc(OC)cc3)[C@@H]3C(=O)N(CC)C(=O)[C@@H]3[C@]2(C)C1=O
The “hERG current change (%, negative = inhibition) at 10uM” value of the first is higher: 10.1% for the first, -2.88% for the second.

Compared with `N#CCCn1nc(-c2ccc(Br)cc2)cc1Nc1ccccc1NC(=O)C(F)(F)F`, `Brc1ccc(CNc2nc3ccccc3n2CCN2CCCCC2)cc1` is lower in “hERG current change (%, negative = inhibition) at 10uM” value: -17% for the first, -62.7% for the second.

Going from `Cn1ncc2c(=O)[nH]cnc21` to `CCOc1c2ccc(C(=O)NCc3ccc(C(F)(F)F)cc3C(F)(F)F)cc2nn1C`, the “hERG current change (%, negative = inhibition) at 10uM” value falls from 15.9% to -7.59%.

With `CCOC(=O)CSc1ccc2nnc(-c3cccs3)n2n1` the “hERG current change (%, negative = inhibition) at 10uM” value was -51.2%.
